Laboratory results taken from PubChem BioAssay AID463173 (ICCB-Longwood Screening Facility, Harvard Medical School, 2010).
In all, about 52,000 compounds went through this assay and about 4,300 (8.3%) were called active. No stated cut-off is given here; in the data, active means survival mostly below about 52% (no sharp cut-off); inactive means mostly above about 56%. Some of the results follow.

Test system: DeltatarO mutant
Experiment: S. aureus survival, RN4220 and DeltatarO strains – OD600, teichoic acid synthesis inhibitors, primary screen (AID 463173)
Details: S. aureus RN4220 wild type/DeltatarO growth, OD600, 18 h, stronger effect = lower value, screened at 18.75 µg/mL (by protocol)

Q: With CCS(=O)(=O)N1CCc2cc(C(=O)N3CCN(c4cccc(C(F)(F)F)c4)CC3)ccc21 as the molecule, how does the survival read?
A: Its survival is inactive: 52%.

Q: For CC(C)N(C(=O)c1cc2sccc2n1Cc1ccc(F)cc1)C(C)C, which survival is on record?
A: The survival was inactive: 104%.

Q: With NC(=O)C1CCN(CC(=O)Nc2ccccc2)CC1 as the molecule, how does the survival read?
A: The survival was inactive: 96%.

Q: How did the survival turn out when CCCCC(CC)C(=O)Nc1nnc(C(C)C)s1 (stereo unspecified) was run?
A: Its survival is inactive: 91%.

Q: COc1ccc2oc(=O)cc(CN3CCN(C(=O)c4ccccc4F)CC3)c2c1 was tested. Which survival did it give?
A: The survival was active: 36%.

Q: How did the survival turn out when CCOc1ccc2nc(Cl)c(CN(Cc3ccco3)C(=O)C3CC3)cc2c1 was run?
A: Its survival is inactive: 106%.

Q: COc1cccc(-c2cn3c(n2)sc2cc(C(=O)NCc4cccs4)ccc23)c1 was tested. Which survival did it give?
A: Its survival is inactive: 57%.

Q: How did the survival turn out when COc1ccc(CNC(=O)Cn2ccc3cc(S(=O)(=O)N4CCCCCC4)ccc32)cc1OC was run?
A: The survival was inactive: 108%.

Q: For CCCN(CCC)CCCNC(=O)C1CCC(CNS(=O)(=O)c2ccc(NC(C)=O)cc2)CC1 (stereo unspecified), which survival is on record?
A: Its survival is inactive: 84%.

Q: COc1cccc(CNC(=O)CCc2nnc3n(C)c(=O)c4sccc4n23)c1 was tested. Which survival did it give?
A: Its survival is inactive: 63%.

Q: For CC(=O)Nc1ccc(NC(=O)CC2Sc3ccccc3NC2=O)cc1 (stereo unspecified), which survival is on record?
A: Its survival is inactive: 177%.

Q: Which survival does the source give for Cc1ccc(Cl)cc1N1CCN(C(=O)c2cc(S(=O)(=O)N3CCC(C)CC3)cn2C)CC1 here?
A: The survival was inactive: 89%.

Q: Which survival does the source give for CCOc1ccc(CNC(=O)C2CCN(S(=O)(=O)c3c(C)noc3/C=C/c3ccc(C)cc3)CC2)cc1OC here?
A: Its survival is inactive: 81%.

Q: CCOc1ccc(CNS(=O)(=O)c2ccc3[nH]c4c(c3c2)CCCC4)cc1OC was tested. Which survival did it give?
A: Its survival is inactive: 81%.

Q: For Cc1c(CNCc2ccc(Cl)cc2)c(C(=O)O)c(C)n1Cc1ccc(F)cc1, which survival is on record?
A: Its survival is inactive: 77%.

Q: CN(C)c1nc(C#N)nc(N2CCOCC2)n1 was tested. Which survival did it give?
A: Its survival is inactive: 72%.

Q: COc1ccc(C(CNC(=O)COc2ccc(C)c(C)c2)N2CCCCC2)cc1 (stereo unspecified) was tested. Which survival did it give?
A: Its survival is inactive: 89%.

Q: With CN1CCN(S(=O)(=O)c2ccc(NC(=O)COc3ccccc3Cl)cc2)CC1 as the molecule, how does the survival read?
A: The survival was inactive: 106%.

Q: How did the survival turn out when Cc1ccccc1CSc1cn(CCNC(=O)c2cccs2)c2ccccc12 was run?
A: Its survival is inactive: 65%.

Q: Which survival does the source give for CCC(O)c1nc2ccccc2n1Cc1cccc(Cl)c1 (stereo unspecified) here?
A: The survival was inactive: 83%.

Q: How did the survival turn out when CCOC(=O)Cc1ccc(NC(=O)n2ncc3c(C)cccc32)cc1 was run?
A: The survival was inactive: 76%.

Q: How did the survival turn out when CCOC(=O)c1c(C)oc2nc(C)nc(Nc3cccc(OC)c3)c12 was run?
A: Its survival is inactive: 78%.

Q: For CCN1C(=O)N(CC)C2NC(=S)NNC21 (stereo unspecified), which survival is on record?
A: Its survival is inactive: 91%.

Q: How did the survival turn out when CCOc1ccc(CC(=O)Nc2c(C(=O)c3ccc(F)cc3)oc3ccccc23)cc1OCC was run?
A: The survival was active: 42%.

Q: Cc1ccc(-c2nc3c(c(SCC(=O)N4CCCCC4)n2)Cc2cc(C)ccc2O3)cc1 was tested. Which survival did it give?
A: Its survival is inactive: 69%.

Q: Which survival does the source give for CCn1c(CNC(=O)c2ccc(OC)cc2)nnc1SCC(=O)Nc1ccc(OC)cc1 here?
A: The survival was inactive: 132%.

Q: O=C(CN1C(=O)c2ccccc2C1=O)OC(C(=O)NC1CCCC1)c1ccncc1 (stereo unspecified) was tested. Which survival did it give?
A: The survival was inactive: 104%.

Q: How did the survival turn out when Cc1ccccc1CNC(=O)C(C)n1nc(C)n2c(cc3occc32)c1=O (stereo unspecified) was run?
A: Its survival is inactive: 68%.

Q: For COc1ccc(CC(=O)Nc2nc3c(s2)CC(C(C)(C)C)CC3)cc1 (stereo unspecified), which survival is on record?
A: Its survival is active: 29%.

Q: How did the survival turn out when Cc1ccc(NC(=O)CN2C(=O)CCSc3ccc(S(=O)(=O)N4CCCC4)cc32)cc1 was run?
A: The survival was inactive: 86%.

Q: COc1ccc(NC(=O)C2=CC(c3cccs3)=NS(=O)(=O)N2C)cc1 was tested. Which survival did it give?
A: Its survival is inactive: 94%.

Q: With O=C1CC(c2nc3ccccc3n2CCCCOc2ccccc2)CN1c1ccccc1Cl (stereo unspecified) as the molecule, how does the survival read?
A: Its survival is inactive: 58%.

Q: With CC1CCCCN1Cc1c(O)ccc2c(=O)c(-c3cccc(Cl)c3)c(C(F)(F)F)oc12 (stereo unspecified) as the molecule, how does the survival read?
A: Its survival is inactive: 59%.

Q: How did the survival turn out when CCc1nnc(NC(=O)CSc2nc3c([nH]c4ccccc43)c(=O)n2-c2cc(C)cc(C)c2)s1 was run?
A: The survival was inactive: 87%.

Q: Which survival does the source give for O=C(NCCc1ccccc1)c1ccc2c(c1)N(Cc1ccccc1Cl)C(=O)c1ccccc1S2 here?
A: The survival was inactive: 94%.

Q: For CC(C)NC(=O)Nc1ccc2c(c1)N(C)C(=O)c1ccccc1S2, which survival is on record?
A: Its survival is inactive: 117%.

Q: For COc1ccc(-c2nc3scc(CCNS(=O)(=O)c4ccc(F)cc4F)n3n2)cc1OC, which survival is on record?
A: The survival was inactive: 72%.

Q: Which survival does the source give for CCOC(=O)c1cccc(NC(=O)CSc2ncc3c(n2)-c2ccccc2N(C)S3(=O)=O)c1 here?
A: Its survival is inactive: 55%.

Q: Which survival does the source give for COc1ccccc1CNC(=O)C(Cc1ccccc1)NS(=O)(=O)c1ccc2c(c1)oc(=O)n2C (stereo unspecified) here?
A: Its survival is inactive: 63%.

Q: For CCOc1ccc(CC(=O)Nc2ccc3nc(N4CCCCC4)cc(C)c3c2)cc1OCC, which survival is on record?
A: The survival was inactive: 92%.

Q: For COc1ccc(Cl)cc1NC(=O)CCc1nc(-c2ccccc2F)no1, which survival is on record?
A: The survival was active: 20%.

Q: How did the survival turn out when O=C(Cn1c(=O)n(Cc2ccc3c(c2)OCO3)c(=O)c2ccccc21)Nc1cccc(Cl)c1 was run?
A: Its survival is inactive: 65%.

Q: With CC1S/C(=N\C(=O)Nc2ccc(Cl)cc2)NC1=O (stereo unspecified) as the molecule, how does the survival read?
A: The survival was inactive: 91%.

Q: With Cc1c(C(=O)N2CCCC2)oc2c1-c1nn(CC(=O)NCc3cccc(Br)c3)cc1CC2 as the molecule, how does the survival read?
A: The survival was inactive: 75%.

Q: Clc1cccc(CNc2ncnc3c2nc2n3CCCC2)c1 was tested. Which survival did it give?
A: Its survival is inactive: 88%.

Q: Which survival does the source give for COc1ccc(-n2ncc3c(N4CCN(c5cccc(C)c5)C(C)C4)ncnc32)cc1 (stereo unspecified) here?
A: The survival was inactive: 79%.
